Laboratory results: PMC2140264
These are yes or no findings as the source states them, for the method shown. For some assays here: Binding seen in cells or lysates may run through a third protein. Some results given as binding are weak or reduced against the parent protein; the word gives no strength. For some assays here: Sequences can lack the tags named with a protein.

Sequences of proteins named here, by UniProt entry; tags and fusion partners are left off.
UniProt Q12373: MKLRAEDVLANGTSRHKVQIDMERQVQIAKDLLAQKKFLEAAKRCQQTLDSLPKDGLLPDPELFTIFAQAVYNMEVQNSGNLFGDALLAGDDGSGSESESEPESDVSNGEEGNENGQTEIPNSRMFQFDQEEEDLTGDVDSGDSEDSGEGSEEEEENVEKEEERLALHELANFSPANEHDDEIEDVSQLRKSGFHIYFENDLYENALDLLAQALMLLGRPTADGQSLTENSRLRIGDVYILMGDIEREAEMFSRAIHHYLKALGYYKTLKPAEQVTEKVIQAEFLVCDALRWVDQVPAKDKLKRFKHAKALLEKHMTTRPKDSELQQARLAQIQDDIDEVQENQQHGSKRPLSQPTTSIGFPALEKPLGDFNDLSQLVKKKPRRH
UniProt Q12341: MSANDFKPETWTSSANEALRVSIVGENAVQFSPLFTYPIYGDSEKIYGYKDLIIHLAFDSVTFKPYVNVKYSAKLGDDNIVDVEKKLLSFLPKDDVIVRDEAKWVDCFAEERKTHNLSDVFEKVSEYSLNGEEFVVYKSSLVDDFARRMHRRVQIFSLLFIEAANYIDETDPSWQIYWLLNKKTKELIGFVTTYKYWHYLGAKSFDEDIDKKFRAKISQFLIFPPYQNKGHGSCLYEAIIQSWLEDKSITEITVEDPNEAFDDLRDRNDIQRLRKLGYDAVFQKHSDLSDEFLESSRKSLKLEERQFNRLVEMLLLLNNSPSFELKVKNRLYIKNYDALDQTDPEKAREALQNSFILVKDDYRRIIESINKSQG

T1: Orc3p (S. cerevisiae) (UniProt P54790)
T1 sequence: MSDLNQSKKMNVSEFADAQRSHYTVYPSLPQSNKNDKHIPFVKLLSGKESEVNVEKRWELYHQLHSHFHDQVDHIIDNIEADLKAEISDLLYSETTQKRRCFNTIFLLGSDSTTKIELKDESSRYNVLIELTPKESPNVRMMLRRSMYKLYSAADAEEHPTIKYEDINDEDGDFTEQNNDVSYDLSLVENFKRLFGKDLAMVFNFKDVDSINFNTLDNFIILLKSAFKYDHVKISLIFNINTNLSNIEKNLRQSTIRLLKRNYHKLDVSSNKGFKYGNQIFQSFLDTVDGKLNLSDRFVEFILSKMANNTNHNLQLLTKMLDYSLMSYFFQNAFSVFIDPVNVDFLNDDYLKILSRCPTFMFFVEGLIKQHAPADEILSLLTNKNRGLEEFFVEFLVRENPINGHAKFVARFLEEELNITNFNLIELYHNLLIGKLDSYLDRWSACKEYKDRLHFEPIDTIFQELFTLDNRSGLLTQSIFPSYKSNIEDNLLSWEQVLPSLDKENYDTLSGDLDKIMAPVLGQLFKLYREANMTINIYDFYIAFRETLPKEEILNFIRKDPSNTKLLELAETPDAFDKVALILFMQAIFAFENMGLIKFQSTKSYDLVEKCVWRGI


Tests used:
[1] = target: T1, Orc3p (S. cerevisiae); assay: co-IP; yeast whole cell extracts (50 mM HEPES pH 7.8, 200 mM KCl, 1 mM Na2EDTA, 5 mM EGTA-KOH, 10% glycerol, 1 mM DTT); monoclonal α-Orc3p antibody and protein G beads, α-GFP as control antibody; blot with α-myc 9E10; log-phase cells, cells arrested with α-factor, hydroxyurea or nocodazole or released from α-factor; also with benzonase on the beads
[2] = target: TAP-tagged Hif1p (S. cerevisiae) (UniProt Q12373); assay: tandem affinity purification with silver-stained gel and Western blot; TAP purifications from HIF1-TAP, HIF1-TAP hat1Δ, HAT1-TAP and HAT1-TAP hif1Δ strains; concentrated purification products blotted with α-Hat1p, α-Orc2p, α-Orc3p, α-Orc5p and α-acetyl H4 Lys12
[3] = target: TAP-tagged Hat1p (S. cerevisiae) (UniProt Q12341); assay: as above

binding [1]	binding [2]	binding [3]	Molecule
	binds	binds	Hat2p (protein, UniProt P39984 1-401) MENQEKPLSVDEEYDLWKSNVPLMYDFVSETRLTWPSLTVQWLPTPVQELDGGFIKQELIIGTHTSGEEENYLKFAEINLPKEILSNEDPQEEAGEEYQSSLPAPRSNIRITAKYEHEEEITRARYMPQDPNIVATINGQGTVFLYSRSEGLQSTLKFHKDNGYALSFSTLVKGRLLSGSDDHTVALWEVGSGGDPTKPVRTWNDLHSDIINDNKWHNFNKDLFGTVSEDSLLKINDVRANNTTIDTVKCPQPFNTLAFSHHSSNLLAAAGMDSYVYLYDLRNMKEPLHHMSGHEDAVNNLEFSTHVDGVVVSSGSDNRLMMWDLKQIGAEQTPDDAEDGVPELIMVHAGHRSSVNDFDLNPQIPWLVASAEEENILQVWKCSHSLPIVGGPPKVNKDIIS
	no binding		Orc3p (protein, UniProt P54790 1-616) MSDLNQSKKMNVSEFADAQRSHYTVYPSLPQSNKNDKHIPFVKLLSGKESEVNVEKRWELYHQLHSHFHDQVDHIIDNIEADLKAEISDLLYSETTQKRRCFNTIFLLGSDSTTKIELKDESSRYNVLIELTPKESPNVRMMLRRSMYKLYSAADAEEHPTIKYEDINDEDGDFTEQNNDVSYDLSLVENFKRLFGKDLAMVFNFKDVDSINFNTLDNFIILLKSAFKYDHVKISLIFNINTNLSNIEKNLRQSTIRLLKRNYHKLDVSSNKGFKYGNQIFQSFLDTVDGKLNLSDRFVEFILSKMANNTNHNLQLLTKMLDYSLMSYFFQNAFSVFIDPVNVDFLNDDYLKILSRCPTFMFFVEGLIKQHAPADEILSLLTNKNRGLEEFFVEFLVRENPINGHAKFVARFLEEELNITNFNLIELYHNLLIGKLDSYLDRWSACKEYKDRLHFEPIDTIFQELFTLDNRSGLLTQSIFPSYKSNIEDNLLSWEQVLPSLDKENYDTLSGDLDKIMAPVLGQLFKLYREANMTINIYDFYIAFRETLPKEEILNFIRKDPSNTKLLELAETPDAFDKVALILFMQAIFAFENMGLIKFQSTKSYDLVEKCVWRGI
	no binding		Orc5p (protein, UniProt P50874 1-479) MNVTTPEVAFREYQTNCLASYISADPDITPSNLILQGYSGTGKTYTLKKYFNANPNLHAVWLEPVELVSWKPLLQAIARTVQYKLKTLYPNIPTTDYDPLQVEEPFLLVKTLHNIFVQYESLQEKTCLFLILDGFDSLQDLDAALFNKYIKLNELLPKDSKINIKFIYTMLETSFLQRYSTHCIPTVMFPRYNVDEVSTILVMSRCGELMEDSCLRKRIIEEQITDCTDDQFQNVAANFIHLIVQAFHSYTGNDIFALNDLIDFKWPKYVSRITKENIFEPLALYKSAIKLFLSTDDNLSENGQGESAITTNRDDLENSQTYDLSIISKYLLIASYICSYLEPRYDASIFSRKTRIIQGRAAYGRRKKKEVNPRYLQPSLFAIERLLAIFQAIFPIQGKAESGSLSALREESLMKANIEVFQNLSELHTLKLIATTMNKNIDYLSPKVRWKVNVPWEIIKEISESVHFNISDYFSDIHE

Second part, the molecule before the results:

Molecule	binding [1]	binding [2]	binding [3]
Hif1–13myc (from UniProt Q12373 1-385)	no binding		
myc-tagged Orc5p (protein, UniProt P50874 1-479) MNVTTPEVAFREYQTNCLASYISADPDITPSNLILQGYSGTGKTYTLKKYFNANPNLHAVWLEPVELVSWKPLLQAIARTVQYKLKTLYPNIPTTDYDPLQVEEPFLLVKTLHNIFVQYESLQEKTCLFLILDGFDSLQDLDAALFNKYIKLNELLPKDSKINIKFIYTMLETSFLQRYSTHCIPTVMFPRYNVDEVSTILVMSRCGELMEDSCLRKRIIEEQITDCTDDQFQNVAANFIHLIVQAFHSYTGNDIFALNDLIDFKWPKYVSRITKENIFEPLALYKSAIKLFLSTDDNLSENGQGESAITTNRDDLENSQTYDLSIISKYLLIASYICSYLEPRYDASIFSRKTRIIQGRAAYGRRKKKEVNPRYLQPSLFAIERLLAIFQAIFPIQGKAESGSLSALREESLMKANIEVFQNLSELHTLKLIATTMNKNIDYLSPKVRWKVNVPWEIIKEISESVHFNISDYFSDIHE	binds		
Hat2–13myc (protein, UniProt P39984 1-401) MENQEKPLSVDEEYDLWKSNVPLMYDFVSETRLTWPSLTVQWLPTPVQELDGGFIKQELIIGTHTSGEEENYLKFAEINLPKEILSNEDPQEEAGEEYQSSLPAPRSNIRITAKYEHEEEITRARYMPQDPNIVATINGQGTVFLYSRSEGLQSTLKFHKDNGYALSFSTLVKGRLLSGSDDHTVALWEVGSGGDPTKPVRTWNDLHSDIINDNKWHNFNKDLFGTVSEDSLLKINDVRANNTTIDTVKCPQPFNTLAFSHHSSNLLAAAGMDSYVYLYDLRNMKEPLHHMSGHEDAVNNLEFSTHVDGVVVSSGSDNRLMMWDLKQIGAEQTPDDAEDGVPELIMVHAGHRSSVNDFDLNPQIPWLVASAEEENILQVWKCSHSLPIVGGPPKVNKDIIS	binds		
Orc2p (protein, UniProt P32833 1-620) MLNGEDFVEHNDILSSPAKSRNVTPKRVDPHGERQLRRIHSSKKNLLERISLVGNERKNTSPDPALKPKTPSKAPRKRGRPRKIQEELTDRIKKDEKDTISSKKKRKLDKDTSGNVNEESKTSNNKQVMEKTGIKEKREREKIQVATTTYEDNVTPQTDDNFVSNSPEPPEPATPSKKSLTTNHDFTSPLKQIIMNNLKEYKDSTSPGKLTLSRNFTPTPVPKNKKLYQTSETKSASSFLDTFEGYFDQRKIVRTNAKSRHTMSMAPDVTREEFSLVSNFFNENFQKRPRQKLFEIQKKMFPQYWFELTQGFSLLFYGVGSKRNFLEEFAIDYLSPKIAYSQLAYENELQQNKPVNSIPCLILNGYNPSCNYRDVFKEITDLLVPAELTRSETKYWGNHVILQIQKMIDFYKNQPLDIKLILVVHNLDGPSIRKNTFQTMLSFLSVIRQIAIVASTDHIYAPLLWDNMKAQNYNFVFHDISNFEPSTVESTFQDVMKMGKSDTSSGAEGAKYVLQSLTVNSKKMYKLLIETQMQNMGNLSANTGPKRGTQRTGVELKLFNHLCAADFIASNEIALRSMLREFIEHKMANITKNNSGMEIIWVPYTYAELEKLLKTVLNTL		no binding	
